Source: the supplement of paper PMC9446081
Among all 39,000 compounds or so, about 220 (0.56%) showed activity. The list shows a part of the results.

system: Escherichia coli K-12 BW25113; test: relative growth (OD600 normalised to plate interquartile mean) (fraction); higher = less growth inhibition, active = 0.2 or less; conditions: 50 µM; LB; incubation time: overnight (16-24 h)
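Note: static incubation at 37 °C against the wild-type strain, values averaged over two biological replicates.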

Row | Structure (SMILES) | relative growth
1 | CNC(=O)Nc1ccc(C(=O)NC)cc1 | inactive: 0.995
2 | C[C@H](CO)N1C[C@H](C)[C@H](CN(C)C(=O)Nc2ccc(C(F)(F)F)cc2)OCCCC[C@H](C)Oc2ccc(NS(=O)(=O)c3cccs3)cc2C1=O | inactive: 1.04
3 | COc1ccc(CNC(=O)C[C@@H]2CC[C@H]3[C@@H](COc4ccc(NC(=O)C5CC5)cc4C(=O)N3C)O2)cc1 | inactive: 1.03
4 | COc1ccc(CN(C)C[C@H]2Oc3ccc(NC(=O)Cn4cnnn4)cc3CC(=O)N([C@H](C)CO)C[C@@H]2C)cc1 | inactive: 1.01
5 | COc1cc(C(=O)N2CCN(CCN3C(=O)c4cccc5cccc(c45)C3=O)CC2)cc(OC)c1OC | inactive: 0.987
6 | CN(CC=Cc1ccccc1)Cc1cccc2ccccc12.Cl | inactive: 0.9
7 | COc1ccccc1S(=O)(=O)N(C)C[C@@H]1Oc2cc(C#CCC(C)C)ccc2S(=O)(=O)N([C@@H](C)CO)C[C@@H]1C | inactive: 0.995
8 | COc1ccc(S(=O)(=O)Nc2cccc3c2O[C@@H](CN(C)Cc2ccncc2)[C@@H](C)CN([C@H](C)CO)C3=O)cc1 | inactive: 1.01
9 | C[C@@H]1CN([C@H](C)CO)C(=O)c2cc(NC(=O)Nc3ccc(C(F)(F)F)cc3)ccc2O[C@@H](C)CCCCO[C@@H]1CN(C)C(=O)C1CCCCC1 | inactive: 1.03
10 | O=C(NCCN1CCOCC1)[C@@]1(CCS(=O)(=O)c2ccccc2)N=C(c2ccc(OCCCO)cc2)O[C@H]1c1ccccc1 | inactive: 1.01
11 | C[C@@H]1CN([C@@H](C)CO)C(=O)c2cc(C#CCC3CCCC3)cnc2O[C@@H]1CN(C)C(=O)c1cnccn1 | inactive: 1.05
12 | C[C@@H]1CCCCO[C@H](CN(C)C(=O)Nc2ccc(C(F)(F)F)cc2)[C@H](C)CN([C@@H](C)CO)C(=O)c2cc(NC(=O)Nc3ccccc3)ccc2O1 | inactive: 1.03
13 | O=C(CCCN1CCC(O)(c2ccc(Cl)cc2)CC1)c1ccc(F)cc1 | inactive: 1.02
14 | C[C@@H]1CN([C@H](C)CO)C(=O)c2cc(NC(=O)Cc3cn(C)c4ccccc34)ccc2O[C@@H]1CN(C)Cc1ccc(C(F)(F)F)cc1 | inactive: 1.05
15 | COc1ccc([Si](C)(C)[C@H]2[C@H](CC(=O)N(CCO)Cc3ccccc3)O[C@@]3(C(=O)N(C)c4c(Br)cc(C)cc43)[C@@H]2C)cc1 | inactive: 1.04
16 | C[C@@H]1CN([C@H](C)CO)C(=O)c2cccc(NC(=O)Nc3ccc(F)cc3)c2O[C@@H]1CN(C)Cc1ccc(Cl)c(Cl)c1 | inactive: 1.03
17 | CCc1nc2ccc(C(=O)N3CCN(S(=O)(=O)CC)CC3)cn2c1N(C=O)Cc1ccc(OC)cc1 | inactive: 1.01
18 | CCNC(=O)C[C@H]1CC[C@H](NC(=O)C2CC2)[C@@H](CO)O1 | inactive: 1
19 | CC(C)(C)c1ccc(NC(=O)N[C@H]2CCCc3ccccc32)cc1 | inactive: 1.03
20 | O=C(O)C1OC(Oc2cc3oc(-c4ccccc4)cc(=O)c3c(O)c2O)C(O)C(O)C1O (stereo not drawn) | inactive: 1.05
21 | O=C(NCCN1CCCC1)[C@H]1[C@H](CO)[C@H]2Cn3c(cccc3=O)[C@@H]1N2C(=O)NC1CCCC1 | inactive: 0.993

Row | Structure (SMILES) | relative growth
22 | C[C@H](CO)N1C[C@H](C)[C@H](CN(C)S(=O)(=O)c2ccccc2)Oc2c(NS(=O)(=O)c3ccc(F)cc3)cccc2C1=O | inactive: 1.02
23 | Cc1noc(C)c1S(=O)(=O)N(C)C[C@@H]1OCCCC[C@H](C)Oc2ccc(NC(=O)Nc3ccccc3)cc2C(=O)N([C@@H](C)CO)C[C@H]1C | inactive: 1
24 | Cc1noc(C)c1NC(=O)Nc1ccc2c(c1)C(=O)N([C@@H](C)CO)C[C@H](C)[C@H](CN(C)C(=O)NC(C)C)O2 | inactive: 1.01
25 | C[C@@H]1CCCCO[C@@H](CN(C)Cc2ccc(Cl)c(Cl)c2)[C@@H](C)CN([C@@H](C)CO)C(=O)c2cc(NS(C)(=O)=O)ccc2O1 | inactive: 0.983
26 | COc1ccc(NC(=O)Nc2ccc3c(c2)C(=O)N([C@H](C)CO)C[C@@H](C)[C@@H](CN(C)Cc2ccncc2)OCCCC[C@H](C)O3)cc1 | inactive: 1.02
27 | Cc1nc(-c2ccncc2)sc1CN | inactive: 1.01
28 | O=C(CCCCCNC(=O)OCc1ccc(CO[C@H]2C[C@@H](c3csc4ccccc34)C=C(C(=O)N3CCN(Cc4ccccc4)CC3)O2)cc1)NO | inactive: 1
29 | C[C@@H]1CN([C@H](C)CO)C(=O)c2cc(NC(=O)Nc3ccc(C(F)(F)F)cc3)ccc2O[C@@H](C)CCCCO[C@@H]1CN(C)Cc1ccccc1 | inactive: 1.05
30 | C[C@@H]1CN([C@H](C)CO)C(=O)Cc2cc(NC(=O)Cc3cn(C)c4ccccc34)ccc2O[C@H]1CN(C)S(C)(=O)=O | inactive: 0.979
31 | Cc1ccc(S(=O)(=O)Nc2ccc3c(c2)C(=O)N([C@@H](C)CO)C[C@@H](C)[C@H](CN(C)C(=O)CCC(F)(F)F)OCCCC[C@@H](C)O3)cc1 | inactive: 0.97
32 | C[C@H](NC(=O)C[C@@H]1CC[C@@H](NC(=O)CN2CCOCC2)[C@H](CO)O1)c1ccccc1 | inactive: 1
33 | C[C@H](CO)N1C[C@H](C)[C@H](CN(C)Cc2ccc(C(F)(F)F)cc2)OCCCC[C@H](C)Oc2ccc(NS(=O)(=O)c3ccccc3)cc2C1=O | inactive: 1.02
34 | O=C(C[C@H]1CC[C@H]2[C@@H](COC[C@@H](O)CN2S(=O)(=O)c2ccccc2F)O1)N1CCC(Cc2ccccc2)CC1 | inactive: 1.02
35 | CC(C)CC#Cc1ccc2c(c1)O[C@H](CN(C)C(=O)c1cccnc1)[C@H](C)CN([C@@H](C)CO)S2(=O)=O | inactive: 0.973
36 | COc1ccc(S(=O)(=O)N(C)C[C@H]2OCCCC[C@@H](C)Oc3ccc(NC(=O)Nc4c(C)noc4C)cc3C(=O)N([C@H](C)CO)C[C@@H]2C)cc1 | inactive: 0.918
37 | O=C(CN1CCOCC1)NCC[C@H]1CC[C@@H](NC(=O)c2ccccc2F)[C@@H](CO)O1 | inactive: 0.978
38 | C[C@@H]1CCCCO[C@H](CN(C)CC2CCCCC2)[C@@H](C)CN([C@H](C)CO)C(=O)c2cc(NC(=O)c3ccncc3)ccc2O1 | inactive: 0.999
39 | CC(C)c1nc2cc3sc(C(C)C)nc3cc2s1 | inactive: 1.04
40 | Cc1cc(N2C(=O)CCC2=O)no1 | inactive: 1.02
41 | C[C@@H]1CCCCO[C@H](CN(C)CC2CC2)[C@@H](C)CN([C@H](C)CO)C(=O)c2cc(NC(=O)Nc3ccccc3)ccc2O1 | inactive: 0.966
42 | C[C@@H]1CN([C@@H](C)CO)C(=O)Cc2cc(NS(=O)(=O)c3ccccc3)ccc2O[C@H]1CN(C)Cc1ccc2c(c1)OCO2 | inactive: 0.996

Row | Structure (SMILES) | relative growth
43 | COc1ccc(S(=O)(=O)N(C)C[C@H]2OCCCC[C@H](C)Oc3ccc(NC(=O)Nc4ccc(F)cc4)cc3C(=O)N([C@H](C)CO)C[C@H]2C)cc1 | inactive: 0.991
44 | C[C@@H]1CN([C@H](C)CO)C(=O)c2cc(NC(=O)CCN3CCOCC3)ccc2O[C@@H]1CN(C)Cc1ccncc1 | inactive: 1.01
45 | CCCCCCCCCCCCCCCc1cccc(OCC)c1C(=O)Nc1ccc(Cl)c(C(F)(F)F)c1 | inactive: 1.03
46 | C[C@H]1CN([C@@H](C)CO)C(=O)Cc2cc(NC(=O)Nc3ccc(F)cc3)ccc2O[C@@H]1CN(C)Cc1ccc(C(=O)Nc2ccccc2N)cc1 | inactive: 1.03
47 | CC(C)c1ccc(/C=C/C(=O)O)cc1 | inactive: 0.992
48 | F[C@H]1CCNC1 | inactive: 1
49 | C[C@H]1CN([C@@H](C)CO)C(=O)c2cc(Br)cnc2O[C@@H]1CN(C)S(=O)(=O)c1ccc(F)cc1 | inactive: 1.01
50 | COC(=O)c1c(C)c2c(c(C)c1O)OC(=O)c1c(C)c(Cl)c(O)c(Cl)c1O2 | inactive: 0.989
51 | COc1ccc(NC(=O)Nc2ccc3c(c2)CC(=O)N([C@H](C)CO)C[C@H](C)[C@@H](CN(C)Cc2ccc(C(F)(F)F)cc2)O3)cc1 | inactive: 0.987
52 | C[C@H](CO)N1C[C@H](C)[C@H](CN(C)Cc2ccc(C(F)(F)F)cc2)Oc2c(NC(=O)NC3CCCCC3)cccc2C1=O | inactive: 0.864
53 | O=C(N[C@@H](c1ccc(-c2ccccc2)cc1)c1cnccn1)C1CCN(CCOc2ccc(F)cc2)CC1 | inactive: 0.946
54 | Cc1noc(C)c1NC(=O)N(C)C[C@@H]1Oc2cc(Br)ccc2S(=O)(=O)N([C@H](C)CO)C[C@@H]1C | inactive: 0.97
55 | C[C@@H]1CN([C@@H](C)CO)C(=O)c2cc(NC(=O)NC3CCCCC3)ccc2O[C@@H](C)CCCCO[C@H]1CN(C)Cc1ccccc1 | inactive: 0.988
56 | O=C(Cc1ccc(-c2ccccc2)cc1)Nc1c(C(=O)Nc2ccc3c(c2)OCCO3)oc2ccccc12 | inactive: 1.05
57 | CO[C@@H](CN(C)C(=O)c1ccc2c(c1)OCO2)[C@@H](C)CN([C@H](C)CO)S(=O)(=O)c1ccc(Cl)cc1 | inactive: 1.01
58 | C[C@H]1CN([C@@H](C)CO)S(=O)(=O)c2ccc(C#CCN(C)C)cc2O[C@@H]1CN(C)C(=O)C1CCCCC1 | inactive: 1.01
59 | O=C(C1=C[C@@H](c2csc3ccccc23)C[C@@H](OCc2ccc(CO)cc2)O1)N1CCN(Cc2ccccc2)CC1 | inactive: 1.02
60 | Cc1noc(C)c1S(=O)(=O)N(C)C[C@@H]1OCc2cn(nn2)CCCC(=O)N([C@H](C)CO)C[C@H]1C | inactive: 0.994
61 | C[C@H](N)C12CC3CC(CC(C3)C1)C2 | inactive: 0.975
62 | COCCc1nc2c([nH]1)c(=O)n(C)c(=O)n2C | inactive: 0.97
63 | CCCNC(=O)N1C[C@H](C)[C@@H](OC)CN(C)C(=O)c2cc(NS(=O)(=O)CC(F)(F)F)ccc2OC[C@H]1C | inactive: 0.956
